{"source": "paper PMC9911399", "about": "“Two distinct binding modes provide the RNA-binding protein RbFox with extraordinary sequence specificity”", "binders": {"B1": {"name": "UUAGGUC (DNA:RNA)", "RNA": "GGGAGACCGGAAUUCAGAUUGUCCUUAGGUCUUAAAUCCCGUCGUAGCCACCA", "DNA 1": "CAATCTGAATTCCGGTCTCCC", "DNA 2": "TGGTGGCTACGACGGGATT"}, "B2": {"name": "CGGGCUG (DNA:RNA)", "RNA": "B1 RNA with U25C, U26G, A27G, G29C, C31G", "DNA 1": "CAATCTGAATTCCGGTCTCCC", "DNA 2": "TGGTGGCTACGACGGGATT"}, "B3": {"name": "AUUCCGC (DNA:RNA)", "RNA": "B1 RNA with U25A, A27U, G28C, G29C, U30G", "DNA 1": "CAATCTGAATTCCGGTCTCCC", "DNA 2": "TGGTGGCTACGACGGGATT"}, "B4": {"name": "UAUUACC (DNA:RNA)", "RNA": "B1 RNA with U26A, A27U, G28U, G29A, U30C", "DNA 1": "CAATCTGAATTCCGGTCTCCC", "DNA 2": "TGGTGGCTACGACGGGATT"}, "B5": {"name": "AAAACAA (DNA:RNA)", "RNA": "B1 RNA with U25A, U26A, G28A, G29C, U30A, C31A", "DNA 1": "CAATCTGAATTCCGGTCTCCC", "DNA 2": "TGGTGGCTACGACGGGATT"}, "B6": {"name": "GGGGGGA (DNA:RNA)", "RNA": "B1 RNA with U25G, U26G, A27G, U30G, C31A", "DNA 1": "CAATCTGAATTCCGGTCTCCC", "DNA 2": "TGGTGGCTACGACGGGATT"}, "B7": {"name": "UCGGUAG (DNA:RNA)", "RNA": "B1 RNA with U26C, A27G, G29U, U30A, C31G", "DNA 1": "CAATCTGAATTCCGGTCTCCC", "DNA 2": "TGGTGGCTACGACGGGATT"}, "B8": {"name": "AAGAUUU (DNA:RNA)", "RNA": "B1 RNA with U25A, U26A, A27G, G28A, G29U, C31U", "DNA 1": "CAATCTGAATTCCGGTCTCCC", "DNA 2": "TGGTGGCTACGACGGGATT"}, "B9": {"name": "GGUUUAC (DNA:RNA)", "RNA": "B1 RNA with U25G, U26G, A27U, G28U, G29U, U30A", "DNA 1": "CAATCTGAATTCCGGTCTCCC", "DNA 2": "TGGTGGCTACGACGGGATT"}, "B10": {"name": "CCAUUCU (DNA:RNA)", "RNA": "B1 RNA with U25C, U26C, G28U, G29U, U30C, C31U", "DNA 1": "CAATCTGAATTCCGGTCTCCC", "DNA 2": "TGGTGGCTACGACGGGATT"}, "B11": {"name": "UGACCUG (DNA:RNA)", "RNA": "B1 RNA with U26G, G28C, G29C, C31G", "DNA 1": "CAATCTGAATTCCGGTCTCCC", "DNA 2": "TGGTGGCTACGACGGGATT"}, "B12": {"name": "CCUGCGU (DNA:RNA)", "RNA": "B1 RNA with U25C, U26C, A27U, G29C, U30G, C31U", "DNA 1": "CAATCTGAATTCCGGTCTCCC", "DNA 2": "TGGTGGCTACGACGGGATT"}, "B13": {"name": "AUCAGGU (DNA:RNA)", "RNA": "B1 RNA with U25A, A27C, G28A, U30G, C31U", "DNA 1": "CAATCTGAATTCCGGTCTCCC", "DNA 2": "TGGTGGCTACGACGGGATT"}, "B14": {"name": "AAAAUUA (DNA:RNA)", "RNA": "B1 RNA with U25A, U26A, G28A, G29U, C31A", "DNA 1": "CAATCTGAATTCCGGTCTCCC", "DNA 2": "TGGTGGCTACGACGGGATT"}, "B15": {"name": "UUAUAAA (DNA:RNA)", "RNA": "B1 RNA with G28U, G29A, U30A, C31A", "DNA 1": "CAATCTGAATTCCGGTCTCCC", "DNA 2": "TGGTGGCTACGACGGGATT"}, "B16": {"name": "GCAUAGG (DNA:RNA)", "RNA": "B1 RNA with U25G, U26C, G28U, G29A, U30G, C31G", "DNA 1": "CAATCTGAATTCCGGTCTCCC", "DNA 2": "TGGTGGCTACGACGGGATT"}, "B17": {"name": "UGAUCAA (DNA:RNA)", "RNA": "B1 RNA with U26G, G28U, G29C, U30A, C31A", "DNA 1": "CAATCTGAATTCCGGTCTCCC", "DNA 2": "TGGTGGCTACGACGGGATT"}, "B18": {"name": "CAGACAC (DNA:RNA)", "RNA": "B1 RNA with U25C, U26A, A27G, G28A, G29C, U30A", "DNA 1": "CAATCTGAATTCCGGTCTCCC", "DNA 2": "TGGTGGCTACGACGGGATT"}, "B19": {"name": "UCUUGAA (DNA:RNA)", "RNA": "B1 RNA with U26C, A27U, G28U, U30A, C31A", "DNA 1": "CAATCTGAATTCCGGTCTCCC", "DNA 2": "TGGTGGCTACGACGGGATT"}, "B20": {"name": "UCUGCUG (DNA:RNA)", "RNA": "B1 RNA with U26C, A27U, G29C, C31G", "DNA 1": "CAATCTGAATTCCGGTCTCCC", "DNA 2": "TGGTGGCTACGACGGGATT"}, "B21": {"name": "GCAUUCU (DNA:RNA)", "RNA": "B1 RNA with U25G, U26C, G28U, G29U, U30C, C31U", "DNA 1": "CAATCTGAATTCCGGTCTCCC", "DNA 2": "TGGTGGCTACGACGGGATT"}, "B22": {"name": "UCAUACU (DNA:RNA)", "RNA": "B1 RNA with U26C, G28U, G29A, U30C, C31U", "DNA 1": "CAATCTGAATTCCGGTCTCCC", "DNA 2": "TGGTGGCTACGACGGGATT"}, "B23": {"name": "CGGGUGA (DNA:RNA)", "RNA": "B1 RNA with U25C, U26G, A27G, G29U, U30G, C31A", "DNA 1": "CAATCTGAATTCCGGTCTCCC", "DNA 2": "TGGTGGCTACGACGGGATT"}, "B24": {"name": "UAGUCUG (DNA:RNA)", "RNA": "B1 RNA with U26A, A27G, G28U, G29C, C31G", "DNA 1": "CAATCTGAATTCCGGTCTCCC", "DNA 2": "TGGTGGCTACGACGGGATT"}, "B25": {"name": "GCUGGAU (DNA:RNA)", "RNA": "B1 RNA with U25G, U26C, A27U, U30A, C31U", "DNA 1": "CAATCTGAATTCCGGTCTCCC", "DNA 2": "TGGTGGCTACGACGGGATT"}, "B26": {"name": "CGGGGGC (DNA:RNA)", "RNA": "B1 RNA with U25C, U26G, A27G, U30G", "DNA 1": "CAATCTGAATTCCGGTCTCCC", "DNA 2": "TGGTGGCTACGACGGGATT"}, "B27": {"name": "UAUCUCU (DNA:RNA)", "RNA": "B1 RNA with U26A, A27U, G28C, G29U, U30C, C31U", "DNA 1": "CAATCTGAATTCCGGTCTCCC", "DNA 2": "TGGTGGCTACGACGGGATT"}, "B28": {"name": "ACUCUAU (DNA:RNA)", "RNA": "GGGAGACCGGAAUUCAGAUUGUCCACUCUAUUUAAAUCCCGUCGUAGCCACCA", "DNA 1": "CAATCTGAATTCCGGTCTCCC", "DNA 2": "TGGTGGCTACGACGGGATT"}, "B29": {"name": "GAGAUAU (DNA:RNA)", "RNA": "B28 RNA with A25G, C26A, U27G, C28A", "DNA 1": "CAATCTGAATTCCGGTCTCCC", "DNA 2": "TGGTGGCTACGACGGGATT"}, "B30": {"name": "GGGAAAC (DNA:RNA)", "RNA": "B28 RNA with A25G, C26G, U27G, C28A, U29A, U31C", "DNA 1": "CAATCTGAATTCCGGTCTCCC", "DNA 2": "TGGTGGCTACGACGGGATT"}, "B31": {"name": "AUAAUAU (DNA:RNA)", "RNA": "B28 RNA with C26U, U27A, C28A", "DNA 1": "CAATCTGAATTCCGGTCTCCC", "DNA 2": "TGGTGGCTACGACGGGATT"}}, "note": "Positions count from the first letter of the chain named. Some of the results follow."}
{"target": "T1, RBFOX1 RRM RbFoxmut (Fox-RRM*) (Homo sapiens, UniProt Q9NWB1 109-208, R118D;E147R;N151S;E152T)", "T1 sequence": "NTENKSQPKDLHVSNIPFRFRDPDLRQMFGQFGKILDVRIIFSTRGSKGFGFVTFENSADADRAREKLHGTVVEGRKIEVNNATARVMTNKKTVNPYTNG", "assay": "EMSA; HiTS-Eq, 1 nM pool, 10 min; buffer printed only for the single-RNA assays: 10 mM Tris pH 7.5, 150 mM NaCl, 3.4 mM EDTA, 0.001% NP-40, 30 C", "details": "tags: His6 N-terminal (pET28a); label: 5' 32P", "method_in_brief": "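Purified wild-type or mutant RbFox RRM at increasing concentrations was equilibrated with 1 nM of 5′-radiolabelled RNA carrying 7 randomized nucleotides for 10 min in 50 µL. Unbound RNA was separated by 8% native PAGE and sequenced. Relative association constants came from read-count changes of each RNA species compared with the control reaction, normalised to the cognate motif.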"}
{"binder": "B1", "binding signal": "0.117 KA relative to UGCAUGU"}
{"binder": "B2", "binding signal": "0.246 KA relative to UGCAUGU"}
{"binder": "B3", "binding signal": "0.0872 KA relative to UGCAUGU"}
{"binder": "B4", "binding signal": "0.0868 KA relative to UGCAUGU"}
{"binder": "B5", "binding signal": "0.0697 KA relative to UGCAUGU"}
{"binder": "B6", "binding signal": "0.082 KA relative to UGCAUGU"}
{"binder": "B7", "binding signal": "0.123 KA relative to UGCAUGU"}
{"binder": "B8", "binding signal": "0.106 KA relative to UGCAUGU"}
{"binder": "B9", "binding signal": "0.0711 KA relative to UGCAUGU"}
{"binder": "B10", "binding signal": "0.0706 KA relative to UGCAUGU"}
{"binder": "B11", "binding signal": "0.123 KA relative to UGCAUGU"}
{"binder": "B12", "binding signal": "0.119 KA relative to UGCAUGU"}
{"binder": "B13", "binding signal": "0.144 KA relative to UGCAUGU"}
{"binder": "B14", "binding signal": "0.0817 KA relative to UGCAUGU"}
{"binder": "B15", "binding signal": "0.0689 KA relative to UGCAUGU"}
{"binder": "B16", "binding signal": "0.118 KA relative to UGCAUGU"}
{"binder": "B17", "binding signal": "0.0566 KA relative to UGCAUGU"}
{"binder": "B18", "binding signal": "0.0598 KA relative to UGCAUGU"}
{"binder": "B19", "binding signal": "0.0842 KA relative to UGCAUGU"}
{"binder": "B20", "binding signal": "0.109 KA relative to UGCAUGU"}
{"binder": "B21", "binding signal": "0.0748 KA relative to UGCAUGU"}
{"binder": "B22", "binding signal": "0.103 KA relative to UGCAUGU"}
{"binder": "B23", "binding signal": "0.117 KA relative to UGCAUGU"}
{"binder": "B24", "binding signal": "0.0956 KA relative to UGCAUGU"}
{"binder": "B25", "binding signal": "0.076 KA relative to UGCAUGU"}
{"binder": "B26", "binding signal": "0.0858 KA relative to UGCAUGU"}
{"binder": "B27", "binding signal": "0.0657 KA relative to UGCAUGU"}
{"binder": "B28", "binding signal": "0.0964 KA relative to UGCAUGU"}
{"binder": "B29", "binding signal": "0.11 KA relative to UGCAUGU"}
{"binder": "B30", "binding signal": "0.0714 KA relative to UGCAUGU"}
{"binder": "B31", "binding signal": "0.104 KA relative to UGCAUGU"}
